The source of these data is paper PMC4336329 (PLoS ONE, 2015).

Screen size: about 310,000 compounds; about 14,000 (4.5%) showed an effect of 50% or more. Effects have a minus sign here. The list shows a part of the results.
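Also: peak tail current of the secondary pulse compared with the same well before compound.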

In the experiment the target is human ether-à-go-go-related gene (hERG) potassium channel (human, UniProt Q12809). Nature of the experiment: primary screen, population patch clamp on CHO cells stably expressing hERG.
Sequence of human ether-à-go-go-related gene (hERG) potassium channel (Q12809 whole entry, looked up): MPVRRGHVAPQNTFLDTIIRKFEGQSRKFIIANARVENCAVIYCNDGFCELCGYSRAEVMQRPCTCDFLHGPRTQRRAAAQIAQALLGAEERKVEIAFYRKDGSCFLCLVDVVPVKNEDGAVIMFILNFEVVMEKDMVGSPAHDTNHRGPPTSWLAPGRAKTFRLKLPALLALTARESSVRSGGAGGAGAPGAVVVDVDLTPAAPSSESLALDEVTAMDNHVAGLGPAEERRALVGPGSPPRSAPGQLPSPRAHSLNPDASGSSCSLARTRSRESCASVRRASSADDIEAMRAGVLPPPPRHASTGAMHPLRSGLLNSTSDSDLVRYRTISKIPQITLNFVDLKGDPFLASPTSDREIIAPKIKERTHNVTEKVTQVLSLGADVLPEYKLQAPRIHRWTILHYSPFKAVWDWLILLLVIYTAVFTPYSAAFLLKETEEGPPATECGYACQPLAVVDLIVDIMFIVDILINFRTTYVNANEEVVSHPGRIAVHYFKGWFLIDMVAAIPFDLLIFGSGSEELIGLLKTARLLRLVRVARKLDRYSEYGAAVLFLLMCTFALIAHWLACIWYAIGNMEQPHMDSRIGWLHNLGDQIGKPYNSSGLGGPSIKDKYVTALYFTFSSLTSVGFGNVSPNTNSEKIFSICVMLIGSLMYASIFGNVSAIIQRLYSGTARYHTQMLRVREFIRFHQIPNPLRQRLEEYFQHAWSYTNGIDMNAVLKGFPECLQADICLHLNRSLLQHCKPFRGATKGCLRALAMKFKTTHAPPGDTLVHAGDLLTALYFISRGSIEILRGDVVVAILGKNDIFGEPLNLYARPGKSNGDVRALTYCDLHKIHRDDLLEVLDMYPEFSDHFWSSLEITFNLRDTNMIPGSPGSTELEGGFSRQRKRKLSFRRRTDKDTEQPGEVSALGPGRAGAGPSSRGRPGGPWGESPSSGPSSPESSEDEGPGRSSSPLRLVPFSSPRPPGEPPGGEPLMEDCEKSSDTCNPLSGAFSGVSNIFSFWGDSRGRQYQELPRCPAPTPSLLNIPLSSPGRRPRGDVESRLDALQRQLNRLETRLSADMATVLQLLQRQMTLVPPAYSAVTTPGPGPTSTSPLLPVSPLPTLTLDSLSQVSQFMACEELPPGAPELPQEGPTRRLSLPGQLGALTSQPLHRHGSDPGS
Turning to `Cc1sc2nc(SC(C)C)nc(N)c2c1C`, the “hERG current change (%, negative = inhibition) at 10uM” value is -2.58%. Under `Cc1ccc(C(=O)N2CCOCC2)cc1S(=O)(=O)N1CCCCC1` stands 11.1%; under `CC(=O)c1ccc(N2CCN(S(=O)(=O)c3cc(-c4cc(C)no4)ccc3C(C)C)CC2)cc1`, 5.74%; under `CCOC(=O)C1CCCN(C(=O)c2cn(C)c3ccc(S(=O)(=O)N4CCCC4)cc3c2=O)C1` (stereo not shown), 8.84%. In the case of `CC[n+]1c(C)n(-c2ccccc2)c2ccc(NC(C)=O)cc21.[I-]`, the “hERG current change (%, negative = inhibition) at 10uM” value stood at 11%. As for `CC1CC(C)CN(S(=O)(=O)c2ccc(C(=O)NCCCn3ccnc3)cc2)C1` (stereo not shown), the “hERG current change (%, negative = inhibition) at 10uM” value is on record as -17.6%. Under `COc1ccc(-c2nc(CS(=O)CC(=O)NC3CCCCC3)c(C)o2)cc1` (stereo not shown) stands -6.79%; under `Fc1ccc(NC(=S)NN2CCOCC2)cc1Cl`, 17.8%; under `Cc1ccccc1N1CCN(C2CCCN(C(=O)c3snnc3C)C2)CC1` (stereo not shown), 5.72%. For the compound `O=C(NC1CCCCCCC1)NC1CCCCC1`, the “hERG current change (%, negative = inhibition) at 10uM” value turned out to be 3.77%.

`O=C(CN1C(=O)c2ccccc2C1=O)Oc1ccc(Cl)cc1`: the “hERG current change (%, negative = inhibition) at 10uM” value is 17.8%. The same measure for `O=C(Nc1ccc([N+](=O)[O-])cc1)Nc1ccc(OC(F)F)c(Cl)c1`: 19.6%; for `O=C(CCNC(=O)c1ccccc1Cl)Nc1cc(S(=O)(=O)N2CCOCC2)ccc1N1CCCC1`: -8.58%; for `COc1cc(/C=C2/C(=N)N3N=C(CC(=O)N4CCOCC4)SC3=NC2=O)ccc1OCc1ccccc1F`: 17.1%. Under `Cc1ccc(S(=O)(=O)N2CCN(C(=O)CN3C(=O)c4ccc([N+](=O)[O-])cc4C3=O)CC2)c(C)c1` stands -7.44%; under `CCc1nnc(NS(=O)(=O)c2ccc(N=Cc3c(C)[nH]n(-c4ccc(Cl)cc4)c3=O)cc2)s1`, 17.7%; under `Cc1cccc(NC(=O)CSc2cccc3cccnc23)c1`, -4.84%. For the compound `COc1cc(CN(C)c2ncnc3sccc23)ccc1OC(F)F`, the “hERG current change (%, negative = inhibition) at 10uM” value is recorded as -27.8%. `O=C(NCCCO)NC(=S)c1cccc2ccccc12`: the “hERG current change (%, negative = inhibition) at 10uM” value is recorded as 0.975%. Under `CC(NC(=O)c1cccc2ccccc12)c1ccc2c(c1)CCCC2` (stereo not shown) stands 3.57%; under `O=C(O)CCn1c(C2CCCCC2)nc2ccccc21`, -16.3%; under `COc1ccc(S(=O)(=O)N2CCC(C(=O)N3CCOCC3)CC2)cc1OC`, 8.8%. Under `Cc1nn(-c2ccccc2)c2c1C(c1ccc([N+](=O)[O-])cc1)C(C#N)=C(N)O2` (stereo not shown) stands 15.4%; under `CCOC(=O)c1cc(C#N)c(SCC(=O)OC)[nH]c1=O`, 6.6%; under `O=C(c1ccc([N+](=O)[O-])o1)N1CCN(c2nc3c(Cl)cccc3s2)CC1`, -10.3%.

In the case of `Cc1ccc(C2C3=C(NCCN=C3c3ccccc3)C(=O)N2c2ccccc2)cc1` (stereo not shown), the “hERG current change (%, negative = inhibition) at 10uM” value is given as -31.7%.

Turning to `CC(=O)c1cccc(NC(=S)NC(=O)CC(C)(C)C)c1`, the “hERG current change (%, negative = inhibition) at 10uM” value is reported as -14.6%. Under `O=C(NCCC(=O)N1CCN(c2ccccc2O)CC1)c1ccc(Cl)cc1` stands -15.7%; under `CCCCC(=O)Nc1ccc(C(=O)NNC(=S)NC(=O)c2cccs2)cc1`, 3.94%. The same measure for `Cc1cc(C)nc(NC(=O)c2cccs2)c1`: 15.3%; for `Cn1c(N)c(C(=O)COc2ccc(C#N)cc2)c(=O)n(C)c1=O`: -4.83%; for `Cc1ccc(NC(=O)C2CCN(S(=O)(=O)c3cccnc3)CC2)cc1C`: -16.2%. The same measure for `CC(NS(=O)(=O)c1ccc(OCC(=O)NCc2ccccn2)cc1)c1ccccc1` (stereo not shown): 8.71%; for `Cc1ccc(S(=O)(=O)Cc2ccc(C(=O)NCCc3ccccc3)o2)cc1`: -27.7%; for `COc1ccc(C(=O)Nc2cc(OC)cc(OC)c2)cc1`: -14.7%. Consider `COC(=O)c1ccc(Cn2nnc3ccccc32)cc1`, for which the “hERG current change (%, negative = inhibition) at 10uM” value was found to be 0.685%. As to `COC(=O)c1ccc(OC)c(CSc2nnc(COc3ccc(Cl)cc3)o2)c1`, the “hERG current change (%, negative = inhibition) at 10uM” value is recorded as -23.7%. Under `CC(=O)c1c(C)[nH]c(C(=O)COC(=O)CN(C)S(=O)(=O)c2ccc(Cl)cc2)c1C` stands -57.8%; under `CSc1ccccc1NC(=O)CN(C)CC(=O)Nc1ccc(N2CCOCC2)cc1`, 18.9%. The same measure for `COC(=O)C1C(c2ccc(Br)cc2)Nc2nnc(C(F)(F)F)n2C1(C)O.Cl` (stereo not shown): 26.1%; for `O=C(O)Cc1ccc(NC(=O)Cc2ccc3ccccc3c2)cc1`: 12.8%; for `COc1ccc(S(=O)(=O)NCC2CCC(C(=O)NCCCN3CCCC3=O)CC2)cc1` (stereo not shown): 16.8%. The same measure for `COc1ccc([N+](=O)[O-])cc1N(CC(O)CN(CC(C)C)CC(C)C)S(=O)(=O)c1ccccc1` (stereo not shown): -1.91%.
